Binding data for one molecule are collected here from PMC6265484, “Homodimerization regulates an endothelial specific signature of the SOX18 transcription factor” (Nucleic Acids Research, 2018).

These are yes or no findings as the source states them, for the method shown. In cells and extracts the contact can be indirect.

The target in this assay is SOX18 homodimer mutant BiFC reporter (NmVENUS155-SOX18SΔ84-205 and CmVENUS155-SOX18SΔ84-205) (UniProt P35713). The assay can be described thus: split reporter; mVENUS split at amino acid 155; mRNAs of the two halves co-injected into single-cell zebrafish embryos, live confocal imaging at 4-5 hpf.

B1: SOX18 homodimer mutant BiFC reporter (NmVENUS155-SOX18SΔ84-205 and CmVENUS155-SOX18SΔ84-205) (protein, UniProt P35713)
chain: MQRSPPGYGAQDDPPARRDCAWAPGHGAAADTRGLAAGPAALAAPAAPASPPSPQRSPPRSPEPGRYGLSPAGRGERQAADESEFDGLGLPTPERSPLDGLEPGEAAFFPPPAAPEDCALRPFRAPYAPTELSRDPGGCYGAPLAEALRTAPPAAPLAGLYYGTLGTPGPYPGPLSPPPEAPPLESAEPLGPAADLWADVDLTEFDQYLNCSRTRPDAPGLPYHVALAKLGPRAMSCPEESSLISALSDASSAVYYSACISG
As to B1, the binding result was “no binding”.
